At least one compound was matched to its structure with a doubt left.
Columns and labels:
Type in all cases: cell-based
hNav1.3 = hNav1.3 (Homo sapiens, UniProt Q9NY46); conditions: IonWorks Quattro, use-dependent block; read-out: IWQ Use Nav1.3
hNav1.5 = hNav1.5 (Homo sapiens, UniProt Q14524); conditions: IonWorks Quattro, use-dependent block; read-out: IWQ Use Nav1.5
hNav1.7 = hNav1.7 (Homo sapiens, UniProt Q15858); conditions: IonWorks Quattro, use-dependent block; read-out: IWQ Use Nav1.7
Sequence of hNav1.7 (Q15858 whole entry, looked up): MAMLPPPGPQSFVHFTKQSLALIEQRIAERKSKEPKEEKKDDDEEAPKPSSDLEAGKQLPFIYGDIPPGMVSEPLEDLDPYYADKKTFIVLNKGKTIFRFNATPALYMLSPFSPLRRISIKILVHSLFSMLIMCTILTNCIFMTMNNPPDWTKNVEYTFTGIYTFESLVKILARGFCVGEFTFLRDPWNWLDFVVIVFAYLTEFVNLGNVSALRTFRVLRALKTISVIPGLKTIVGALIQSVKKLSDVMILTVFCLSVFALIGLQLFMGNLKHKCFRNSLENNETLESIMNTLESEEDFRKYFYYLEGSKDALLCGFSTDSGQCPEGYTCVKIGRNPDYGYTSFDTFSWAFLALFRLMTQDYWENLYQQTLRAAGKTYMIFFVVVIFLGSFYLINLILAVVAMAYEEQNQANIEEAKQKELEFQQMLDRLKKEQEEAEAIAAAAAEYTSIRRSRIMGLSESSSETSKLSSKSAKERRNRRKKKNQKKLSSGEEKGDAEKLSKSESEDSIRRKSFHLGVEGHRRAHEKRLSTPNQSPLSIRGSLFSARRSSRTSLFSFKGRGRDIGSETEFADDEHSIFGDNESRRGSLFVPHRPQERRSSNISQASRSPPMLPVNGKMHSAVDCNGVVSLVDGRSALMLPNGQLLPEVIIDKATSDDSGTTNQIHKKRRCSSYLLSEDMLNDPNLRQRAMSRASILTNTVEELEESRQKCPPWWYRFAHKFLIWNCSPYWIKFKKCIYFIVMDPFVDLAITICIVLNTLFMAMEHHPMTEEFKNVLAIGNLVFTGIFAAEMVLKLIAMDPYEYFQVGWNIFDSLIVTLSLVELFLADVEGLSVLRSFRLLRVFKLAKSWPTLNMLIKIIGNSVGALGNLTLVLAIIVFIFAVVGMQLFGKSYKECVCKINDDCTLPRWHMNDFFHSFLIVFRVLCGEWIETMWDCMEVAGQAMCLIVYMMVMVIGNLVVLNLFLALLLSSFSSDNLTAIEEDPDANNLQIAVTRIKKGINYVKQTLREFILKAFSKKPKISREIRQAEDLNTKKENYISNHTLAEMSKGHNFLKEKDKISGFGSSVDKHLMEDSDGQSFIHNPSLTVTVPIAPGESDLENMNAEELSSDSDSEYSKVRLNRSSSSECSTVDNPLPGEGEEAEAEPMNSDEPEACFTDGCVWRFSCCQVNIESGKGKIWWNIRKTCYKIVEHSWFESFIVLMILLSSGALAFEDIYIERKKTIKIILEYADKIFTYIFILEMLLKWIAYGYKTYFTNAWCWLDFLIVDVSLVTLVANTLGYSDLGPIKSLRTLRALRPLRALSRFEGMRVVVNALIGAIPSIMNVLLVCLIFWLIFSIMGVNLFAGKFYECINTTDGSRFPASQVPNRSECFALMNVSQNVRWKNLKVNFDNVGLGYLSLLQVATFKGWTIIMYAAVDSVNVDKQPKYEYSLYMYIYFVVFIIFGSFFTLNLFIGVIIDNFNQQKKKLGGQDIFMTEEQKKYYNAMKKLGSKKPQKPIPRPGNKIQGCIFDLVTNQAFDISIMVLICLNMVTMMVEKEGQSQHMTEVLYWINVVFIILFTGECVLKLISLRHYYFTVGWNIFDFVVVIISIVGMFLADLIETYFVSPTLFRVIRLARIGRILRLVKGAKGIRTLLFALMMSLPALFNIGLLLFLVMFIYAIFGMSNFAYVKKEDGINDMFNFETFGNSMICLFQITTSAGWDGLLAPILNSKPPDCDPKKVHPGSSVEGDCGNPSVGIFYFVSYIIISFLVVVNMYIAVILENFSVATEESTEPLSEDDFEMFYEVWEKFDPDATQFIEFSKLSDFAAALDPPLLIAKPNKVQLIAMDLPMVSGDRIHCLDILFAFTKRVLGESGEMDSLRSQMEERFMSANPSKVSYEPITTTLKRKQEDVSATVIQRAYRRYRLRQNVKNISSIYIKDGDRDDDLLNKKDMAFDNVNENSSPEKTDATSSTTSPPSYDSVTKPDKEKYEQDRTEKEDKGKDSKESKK

Sequence of hNav1.5 (Q14524 whole entry, looked up): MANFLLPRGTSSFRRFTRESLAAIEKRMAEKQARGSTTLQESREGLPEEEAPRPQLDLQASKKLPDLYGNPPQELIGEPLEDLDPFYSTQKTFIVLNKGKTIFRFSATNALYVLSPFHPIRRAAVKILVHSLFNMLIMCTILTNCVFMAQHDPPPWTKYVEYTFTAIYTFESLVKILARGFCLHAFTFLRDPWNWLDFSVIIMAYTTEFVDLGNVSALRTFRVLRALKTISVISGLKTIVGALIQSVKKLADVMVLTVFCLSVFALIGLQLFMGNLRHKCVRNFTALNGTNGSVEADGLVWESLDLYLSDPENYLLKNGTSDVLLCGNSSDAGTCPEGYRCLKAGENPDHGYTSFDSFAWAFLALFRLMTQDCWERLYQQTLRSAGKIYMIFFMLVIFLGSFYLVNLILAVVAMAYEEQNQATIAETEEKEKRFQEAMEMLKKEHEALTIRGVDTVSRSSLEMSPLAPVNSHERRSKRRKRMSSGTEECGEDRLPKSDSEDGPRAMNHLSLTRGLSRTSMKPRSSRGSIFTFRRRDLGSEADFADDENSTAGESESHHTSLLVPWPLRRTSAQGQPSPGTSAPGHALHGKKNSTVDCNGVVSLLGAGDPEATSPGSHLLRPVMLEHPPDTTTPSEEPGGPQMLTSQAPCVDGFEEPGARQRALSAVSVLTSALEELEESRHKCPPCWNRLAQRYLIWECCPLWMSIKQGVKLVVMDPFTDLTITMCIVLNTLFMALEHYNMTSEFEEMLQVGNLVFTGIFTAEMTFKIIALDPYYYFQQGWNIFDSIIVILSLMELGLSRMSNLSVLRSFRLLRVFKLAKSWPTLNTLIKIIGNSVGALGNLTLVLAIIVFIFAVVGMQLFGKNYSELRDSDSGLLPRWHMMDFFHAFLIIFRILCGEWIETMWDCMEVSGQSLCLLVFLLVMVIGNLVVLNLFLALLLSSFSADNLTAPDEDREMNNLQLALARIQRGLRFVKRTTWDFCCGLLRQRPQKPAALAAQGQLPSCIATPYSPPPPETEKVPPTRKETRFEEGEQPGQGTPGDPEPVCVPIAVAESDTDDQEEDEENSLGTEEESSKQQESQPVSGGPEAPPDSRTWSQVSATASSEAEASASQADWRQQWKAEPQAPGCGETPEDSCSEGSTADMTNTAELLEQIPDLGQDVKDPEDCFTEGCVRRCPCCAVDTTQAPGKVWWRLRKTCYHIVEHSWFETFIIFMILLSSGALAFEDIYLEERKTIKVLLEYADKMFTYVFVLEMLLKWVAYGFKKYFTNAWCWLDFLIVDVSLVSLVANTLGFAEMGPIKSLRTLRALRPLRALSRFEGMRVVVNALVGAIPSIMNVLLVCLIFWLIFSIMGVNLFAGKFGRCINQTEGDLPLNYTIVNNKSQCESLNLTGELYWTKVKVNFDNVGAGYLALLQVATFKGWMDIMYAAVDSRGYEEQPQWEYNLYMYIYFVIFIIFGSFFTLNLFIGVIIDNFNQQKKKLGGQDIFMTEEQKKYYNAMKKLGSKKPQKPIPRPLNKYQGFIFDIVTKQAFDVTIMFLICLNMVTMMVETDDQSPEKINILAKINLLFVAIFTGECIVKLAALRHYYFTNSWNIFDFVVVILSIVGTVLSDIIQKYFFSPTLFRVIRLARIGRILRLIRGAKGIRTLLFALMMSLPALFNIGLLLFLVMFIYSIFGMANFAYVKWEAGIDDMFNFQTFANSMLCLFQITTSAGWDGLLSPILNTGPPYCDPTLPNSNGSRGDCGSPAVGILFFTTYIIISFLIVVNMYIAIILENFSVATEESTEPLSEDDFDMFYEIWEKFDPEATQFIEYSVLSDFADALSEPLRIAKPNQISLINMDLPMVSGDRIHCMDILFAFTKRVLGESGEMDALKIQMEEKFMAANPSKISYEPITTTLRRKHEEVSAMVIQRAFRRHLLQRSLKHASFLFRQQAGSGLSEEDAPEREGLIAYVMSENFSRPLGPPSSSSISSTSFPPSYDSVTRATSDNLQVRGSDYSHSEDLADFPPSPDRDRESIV

SMILES: CC[C@H](C)[C@@H]1NC(=O)[C@@H]2CSSC[C@@H]3NC(=O)[C@H](C(C)C)NC(=O)[C@H](CC(C)C)NC(=O)[C@H](CC(N)=O)NC(=O)[C@@H]4CCCN4C(=O)[C@H](CCCNC(=N)N)NC(=O)[C@H](CSSC[C@H](NC(=O)[C@@H](N)CC(=O)O)C(=O)N[C@@H](CC(C)C)C(=O)NCC(=O)N[C@@H](Cc4ccccc4)C(=O)N[C@@H](Cc4ccccc4)C(=O)N[C@@H](CCCNC(=N)N)C(=O)N[C@@H](CCCCN)C(=O)N2)NC(=O)[C@H](CSSC[C@@H](C(=O)N[C@@H](CCCCN)C(=O)N[C@@H](Cc2ccc(O)cc2)C(=O)N[C@H](C(=O)N[C@@H](Cc2ccccc2)C(N)=O)C(C)C)NC(=O)[C@H](Cc2c[nH]c4ccccc24)NC(=O)[C@H](CCCCN)NC(=O)[C@H](Cc2c[nH]cn2)NC(=O)[C@H]([C@@H](C)O)NC(=O)[C@H](CCCNC(=N)N)NC(=O)[C@H](Cc2cn(CCOCCOCCOCCOCCOCCOCCOCCOCCOCCOCCN)nn2)NC3=O)NC(=O)[C@H](CCCCN)NC(=O)[C@H](CC(=O)O)NC(=O)[C@H](CC(N)=O)NC(=O)[C@H](CC(=O)O)NC(=O)[C@@H]2CCCN2C1=O [compound 541]
- IC50 (hNav1.3): 701 nM
- IC50 (hNav1.5): 6200 nM
- IC50 (hNav1.7): 1740 nM

SMILES: CC[C@H](C)[C@@H]1NC(=O)[C@@H]2CSSC[C@@H]3NC(=O)[C@H](C(C)C)NC(=O)[C@H](CC(C)C)NC(=O)[C@H](CC(N)=O)NC(=O)[C@@H]4CCCN4C(=O)[C@H](CCCNC(=N)N)NC(=O)[C@H](CSSC[C@H](NC(=O)[C@@H](N)CC(=O)O)C(=O)N[C@@H](CC(C)C)C(=O)NCC(=O)N[C@@H](Cc4ccccc4)C(=O)N[C@@H](Cc4ccccc4)C(=O)N[C@@H](CCCNC(=N)N)C(=O)N[C@@H](CCCCN)C(=O)N2)NC(=O)[C@H](CSSC[C@@H](C(=O)N[C@@H](CCCCN)C(=O)N[C@@H](Cc2ccc(O)cc2)C(=O)N[C@H](C(=O)N[C@@H](Cc2cn(CCOCCOCCOCCOCCOCCOCCOCCOCCOCCOCCN)nn2)C(N)=O)C(C)C)NC(=O)[C@H](Cc2c[nH]c4ccccc24)NC(=O)[C@H](CCCCN)NC(=O)[C@H](Cc2c[nH]cn2)NC(=O)[C@H](CC(C)C)NC(=O)[C@H](CCCNC(=N)N)NC(=O)[C@H](CO)NC3=O)NC(=O)[C@H](CCCCN)NC(=O)[C@H](CC(=O)O)NC(=O)[C@H](CC(N)=O)NC(=O)[C@H](CC(=O)O)NC(=O)[C@@H]2CCCN2C1=O [compound 587]
- IC50 (hNav1.3): 1100 nM
- IC50 (hNav1.5): > 5000 nM
- IC50 (hNav1.7): 1400 nM

SMILES: CC[C@H](C)[C@@H]1NC(=O)[C@@H]2CSSC[C@@H]3NC(=O)[C@H](C(C)C)NC(=O)[C@H](CC(C)C)NC(=O)[C@H](CC(N)=O)NC(=O)[C@@H]4CCCN4C(=O)[C@H](CCCNC(=N)N)NC(=O)[C@H](CSSC[C@H](NC(=O)[C@@H](N)CC(=O)O)C(=O)N[C@@H](CC(C)C)C(=O)NCC(=O)N[C@@H](Cc4ccccc4)C(=O)N[C@@H](Cc4ccccc4)C(=O)N[C@@H](CCCNC(=N)N)C(=O)N[C@@H](CCCCN)C(=O)N2)NC(=O)[C@H](CSSC[C@@H](C(=O)N[C@@H](CCCCN)C(=O)N[C@@H](Cc2cn(CCOCCOCCOCCOCCOCCOCCOCCOCCOCCOCCN)nn2)C(=O)N[C@H](C(=O)N[C@@H](Cc2ccccc2)C(N)=O)C(C)C)NC(=O)[C@H](Cc2c[nH]c4ccccc24)NC(=O)[C@H](CCCCN)NC(=O)[C@H](Cc2c[nH]cn2)NC(=O)[C@H](CC(C)C)NC(=O)[C@H](CCCNC(=N)N)NC(=O)[C@H](CO)NC3=O)NC(=O)[C@H](CCCCN)NC(=O)[C@H](CC(=O)O)NC(=O)[C@H](CC(N)=O)NC(=O)[C@H](CC(=O)O)NC(=O)[C@@H]2CCCN2C1=O [compound 585]
- IC50 (hNav1.3): > 5000 nM
- IC50 (hNav1.5): > 5000 nM
- IC50 (hNav1.7): ≥ 5000 nM

SMILES: CC[C@H](C)[C@@H]1NC(=O)[C@@H]2CSSC[C@@H]3NC(=O)[C@H](C(C)C)NC(=O)[C@H](CC(C)C)NC(=O)[C@H](CC(N)=O)NC(=O)[C@H](Cc4cn(CCOCCOCCOCCOCCOCCOCCOCCOCCOCCOCCN)nn4)NC(=O)[C@H](CCCNC(=N)N)NC(=O)[C@H](CSSC[C@H](NC(=O)[C@@H](N)CC(=O)O)C(=O)N[C@@H](CC(C)C)C(=O)NCC(=O)N[C@@H](C)C(=O)N[C@@H](Cc4ccccc4)C(=O)N[C@@H](CCCNC(=N)N)C(=O)N[C@@H](CCCCN)C(=O)N2)NC(=O)[C@H](CSSC[C@@H](C(=O)N[C@@H](CCCCN)C(=O)N[C@@H](Cc2ccc(O)cc2)C(=O)N[C@H](C(=O)N[C@@H](Cc2ccccc2)C(N)=O)C(C)C)NC(=O)[C@H](Cc2c[nH]c4ccccc24)NC(=O)[C@H](CCCCN)NC(=O)[C@H](Cc2c[nH]cn2)NC(=O)[C@H]([C@@H](C)O)NC(=O)[C@H](CCCNC(=N)N)NC(=O)[C@H](CO)NC3=O)NC(=O)[C@H](CCCCN)NC(=O)[C@H](CC(=O)O)NC(=O)[C@H](CC(N)=O)NC(=O)[C@H](CC(=O)O)NC(=O)[C@@H]2CCCN2C1=O [compound 570]
- IC50 (hNav1.3): 520 nM
- IC50 (hNav1.5): > 5000 nM
- IC50 (hNav1.7): 640 nM

SMILES: CC[C@H](C)[C@@H]1NC(=O)[C@@H]2CSSC[C@@H]3NC(=O)[C@H](C(C)C)NC(=O)[C@H](CC(C)C)NC(=O)[C@H](CC(N)=O)NC(=O)[C@@H]4CCCN4C(=O)[C@H](CCCNC(=N)N)NC(=O)[C@H](CSSC[C@H](NC(=O)[C@@H](N)CC(=O)O)C(=O)N[C@@H](CC(C)C)C(=O)NCC(=O)N[C@@H](Cc4ccccc4)C(=O)N[C@@H](Cc4ccccc4)C(=O)N[C@@H](CCCNC(=N)N)C(=O)N[C@@H](CCCCN)C(=O)N2)NC(=O)[C@H](CSSC[C@@H](C(=O)N[C@@H](CCCCN)C(=O)N[C@@H](Cc2cn(CCOCCOCCOCCOCCOCCOCCOCCOCCOCCOCCN)nn2)C(=O)N[C@H](C(=O)N[C@@H](Cc2ccccc2)C(N)=O)C(C)C)NC(=O)[C@H](Cc2c[nH]c4ccccc24)NC(=O)[C@H](CCCCN)NC(=O)[C@H](Cc2c[nH]cn2)NC(=O)[C@H]([C@@H](C)O)NC(=O)[C@H](CCCNC(=N)N)NC(=O)[C@H](CO)NC3=O)NC(=O)[C@H](CCCCN)NC(=O)[C@H](CC(=O)O)NC(=O)[C@H](CC(N)=O)NC(=O)[C@H](CC(=O)O)NC(=O)[C@@H]2CCCN2C1=O [compound 547]
- IC50 (hNav1.3): > 5000 nM
- IC50 (hNav1.5): > 5000 nM
- IC50 (hNav1.7): ≥ 5000 nM

SMILES: CC[C@H](C)[C@@H]1NC(=O)[C@@H]2CSSC[C@@H]3NC(=O)[C@H](C(C)C)NC(=O)[C@H](CC(C)C)NC(=O)[C@H](CC(N)=O)NC(=O)[C@@H]4CCCN4C(=O)[C@H](CCCNC(=N)N)NC(=O)[C@H](CSSC[C@H](NC(=O)[C@H](CC(=O)O)NC(=O)[C@@H](N)Cc4cn(CCOCCOCCOCCOCCOCCOCCOCCOCCOCCOCCN)nn4)C(=O)N[C@@H](CC(C)C)C(=O)NCC(=O)N[C@@H](Cc4ccccc4)C(=O)N[C@@H](Cc4ccccc4)C(=O)N[C@@H](CCCNC(=N)N)C(=O)N[C@@H](CCCCN)C(=O)N2)NC(=O)[C@H](CSSC[C@@H](C(=O)N[C@@H](CCCCN)C(=O)N[C@@H](Cc2ccc(O)cc2)C(=O)N[C@H](C(=O)N[C@@H](Cc2ccccc2)C(N)=O)C(C)C)NC(=O)[C@H](Cc2c[nH]c4ccccc24)NC(=O)[C@H](CCCCN)NC(=O)[C@H](Cc2c[nH]cn2)NC(=O)[C@H]([C@@H](C)O)NC(=O)[C@H](CCCNC(=N)N)NC(=O)[C@H](CO)NC3=O)NC(=O)[C@H](CCCCN)NC(=O)[C@H](CC(=O)O)NC(=O)[C@H](CC(N)=O)NC(=O)[C@H](CC(=O)O)NC(=O)[C@@H]2CCCN2C1=O [compound 532]
- IC50 (hNav1.3): 34 nM
- IC50 (hNav1.5): 4950 nM
- IC50 (hNav1.7): 84 nM

SMILES: CC[C@H](C)[C@@H]1NC(=O)[C@@H]2CSSC[C@@H]3NC(=O)[C@H](C(C)C)NC(=O)[C@H](Cc4cn(CCOCCOCCOCCOCCOCCOCCOCCOCCOCCOCCN)nn4)NC(=O)[C@H](CC(N)=O)NC(=O)[C@@H]4CCCN4C(=O)[C@H](CCCNC(=N)N)NC(=O)[C@H](CSSC[C@H](NC(=O)[C@@H](N)CC(=O)O)C(=O)N[C@@H](CC(C)C)C(=O)NCC(=O)N[C@@H](C)C(=O)N[C@@H](Cc4ccccc4)C(=O)N[C@@H](CCCNC(=N)N)C(=O)N[C@@H](CCCCN)C(=O)N2)NC(=O)[C@H](CSSC[C@@H](C(=O)N[C@@H](CCCCN)C(=O)N[C@@H](Cc2ccc(O)cc2)C(=O)N[C@H](C(=O)N[C@@H](Cc2ccccc2)C(N)=O)C(C)C)NC(=O)[C@H](Cc2c[nH]c4ccccc24)NC(=O)[C@H](CCCCN)NC(=O)[C@H](Cc2c[nH]cn2)NC(=O)[C@H]([C@@H](C)O)NC(=O)[C@H](CCCNC(=N)N)NC(=O)[C@H](CO)NC3=O)NC(=O)[C@H](CCCCN)NC(=O)[C@H](CC(=O)O)NC(=O)[C@H](CC(N)=O)NC(=O)[C@H](CC(=O)O)NC(=O)[C@@H]2CCCN2C1=O [compound 572]
- IC50 (hNav1.3): 1800 nM
- IC50 (hNav1.5): > 5000 nM
- IC50 (hNav1.7): ≥ 5000 nM

SMILES: CC[C@H](C)[C@@H]1NC(=O)[C@@H]2CSSC[C@@H]3NC(=O)[C@H](C(C)C)NC(=O)[C@H](CC(C)C)NC(=O)[C@H](CC(N)=O)NC(=O)[C@@H]4CCCN4C(=O)[C@H](CCCNC(=N)N)NC(=O)[C@H](CSSC[C@H](NC(=O)[C@@H](N)CC(=O)O)C(=O)N[C@@H](CC(C)C)C(=O)NCC(=O)N[C@@H](C)C(=O)N[C@@H](Cc4ccccc4)C(=O)N[C@@H](CCCNC(=N)N)C(=O)N[C@@H](CCCCN)C(=O)N2)NC(=O)[C@H](CSSC[C@@H](C(=O)N[C@@H](CCCCN)C(=O)N[C@@H](Cc2cn(CCOCCOCCOCCOCCOCCOCCOCCOCCOCCOCCN)nn2)C(=O)N[C@H](C(=O)N[C@@H](Cc2ccccc2)C(N)=O)C(C)C)NC(=O)[C@H](Cc2c[nH]c4ccccc24)NC(=O)[C@H](CCCCN)NC(=O)[C@H](Cc2c[nH]cn2)NC(=O)[C@H]([C@@H](C)O)NC(=O)[C@H](CCCNC(=N)N)NC(=O)[C@H](CO)NC3=O)NC(=O)[C@H](CCCCN)NC(=O)[C@H](CC(=O)O)NC(=O)[C@H](CC(N)=O)NC(=O)[C@H](CC(=O)O)NC(=O)[C@@H]2CCCN2C1=O [compound 578]
- IC50 (hNav1.3): > 5000 nM
- IC50 (hNav1.5): > 5000 nM
- IC50 (hNav1.7): ≥ 5000 nM
